About 18,000 (5.8%) of roughly 310,000 compounds were called active. Inconclusive means that the source gave no clear call. Such entries were picked first, then a sample of the others. Calls follow the shape of the dose curve; as a rule, active = well fitted inhibition curve with a large enough effect; inconclusive = small, poorly fitted or top-dose-only effect, or another doubt; inactive = no such curve, though single readings can be large or run the other way. Potencies of inconclusive entries are left out as doubtful fits.
Assay: Primary qHTS for delayed death inhibitors of the malarial parasite plastid, 48 hour incubation
Conditions: P. falciparum luciferase growth in erythrocytes; series mostly up to 28.7 µM
Method in brief: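 Firefly luciferase activity from engineered P. falciparum reports growth; inhibitors lower the luminescent signal. Cultures contained 2% hematocrit erythrocytes at 0.1% final parasitemia.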
In the case of `COc1ccc(CNCCC(c2ccc(OC)cc2)c2ccccc2OC)cc1` (centres undefined), the Potency is reported as inconclusive [inhibitor, single point]. With `Cc1ccc(C(=O)NN(C)c2nc3ccccc3nc2C(F)(F)F)cc1` the Potency was inconclusive [inhibitor, single point]. In the case of `O=C(COc1ccccc1)NC1CCSC1=O` (centres undefined), the Potency is reported as “inactive”. With `CN(Cc1nc2ccccc2c(=O)[nH]1)C(=O)c1cc(C2CC2)nn1-c1ccccc1` the Potency was inconclusive [inhibitor, partial curve]. For `N#Cc1cc2cc3c(cc2nc1SCC(=O)N1CCCC1)OCCO3`, the Potency was “inactive”. In the case of `O=C(COC(=O)/C=C/c1ccc(Br)o1)NC1CCCCC1`, the Potency is reported as inconclusive [inhibitor, single point]. In the case of `C=CCN(c1ccccc1Cl)S(=O)(=O)c1cc(C(=O)N2CCCC2)ccc1Cl`, the Potency is reported as inconclusive [inhibitor, single point]. For `CCOC(=O)c1ccc(S(=O)(=O)N2CCC(C(=O)OCC)CC2)cc1`, the Potency was inconclusive [inhibitor, partial curve, poor fit]. In the case of `O=C(CSc1nc2ccccc2s1)N1N=C(c2cccs2)CC1c1ccc(F)cc1` (centres undefined), the Potency is reported as “inactive”. For `CS(=O)(=O)N(CC(=O)N1CCCCCC1)c1ccc2c(c1)OCCO2`, the Potency was “inactive”. For `O=C(OCC(=O)N1CCC(Cc2ccccc2)CC1)c1cc(Cl)ccc1O`, the Potency was “inactive”. With `CN(C)C(C)(C)C#CCCCCC#CC(C)(C)N(C)C` the Potency was inconclusive [inhibitor, partial curve, poor fit]. In the case of `Cc1ccc(OCC(=O)N(Cc2ccco2)C2CCS(=O)(=O)C2)cc1` (centres undefined), the Potency is reported as inconclusive [inhibitor, single point]. With `O=C(Nc1cccc(O)c1)c1cc(-c2cccs2)on1` the Potency was “inactive”. For `Cc1c(Br)c([N+](=O)[O-])nn1CC(=O)N1CCc2ccccc21`, the Potency was “inactive”. For `C=CCn1c(NCc2c[nH]c3ccccc23)nc2ccccc21`, the Potency was “inactive”. With `CCN(/N=C/C=C/c1ccccc1)c1cc(=O)n(C)c(=O)[nH]1` the Potency was inconclusive [inhibitor, single point]. With `CNC(=S)Nc1cccc(C(C)=O)c1` the Potency was “inactive”. With `S=C(Nc1ccccc1)Nc1nc2ccccc2n1CCOc1ccc(Cl)cc1` the Potency was active: 7.38 µM. With `COc1ccc(CC(=O)NNc2ncnc3c2cnn3Cc2ccccc2)cc1OC` the Potency was inconclusive [inhibitor, single point]. For `COc1cccc(NC(=O)Nc2ccc3nsnc3c2)c1`, the Potency was “inactive”. For `N=C1C(c2ccc(Br)cc2)=C(O)C2CCc3ccccc3N12` (centres undefined), the Potency was inconclusive [inhibitor, partial curve]. With `CC(C)c1ccc(CNc2ncccn2)cc1` the Potency was “inactive”. For `O=C(NCc1ccccc1CN1CCCCC1)c1ccc(Cl)cc1N1CCCC1=O`, the Potency was inconclusive [inhibitor, single point]. With `O=C(O)/C=C/c1cccc(NC(=O)c2ccc(Cl)cc2)c1` the Potency was active: 0.329 µM. With `O=C(c1ccccc1F)c1cn(Cc2ccc(F)cc2)c2ccccc12` the Potency was “inactive”. For `CSCC[C@H](NC(=O)N1CCn2c1nc1ccccc12)C(=O)NCc1ccc(F)cc1`, the Potency was inconclusive [inhibitor, single point]. For `CC1CCCN(C(=O)c2cc(-c3ccco3)nc3ccccc23)C1` (centres undefined), the Potency was inconclusive [inhibitor, single point]. For `Cc1cc(C)cc(NC(=O)c2cccc(NC3=NC4CS(=O)(=O)CC4S3)c2)c1` (centres undefined), the Potency was inconclusive [inhibitor, single point]. For `CCOc1cccc(CNc2ccc(O)cc2)c1OCc1ccccc1Cl`, the Potency was inconclusive [inhibitor, single point]. With `Cc1ccc(C)c(S(=O)(=O)N2CCN(C(=O)CNC(=O)c3ccc4ccccc4c3)CC2)c1` the Potency was “inactive”. With `COc1cc(/C=C(/C#N)c2ccc(C)cc2)ccc1Oc1ccc([N+](=O)[O-])cn1` the Potency was inconclusive [inhibitor, partial curve]. In the case of `COc1ccc(NS(=O)(=O)c2cc(NC(=O)c3ccco3)ccc2N2CCCC2)cc1`, the Potency is reported as inconclusive [inhibitor, single point]. With `N#C/C(=C\c1c(Oc2ccccc2F)nc2ccccn2c1=O)C(=O)NC1CCS(=O)(=O)C1` (centres undefined) the Potency was inconclusive [inhibitor, partial curve, poor fit]. In the case of `COc1ncc(-c2ccc3c(c2)S(=O)(=O)c2cccc(C(=O)O)c2C3=O)cn1`, the Potency is reported as “inactive”. In the case of `Clc1ccc(C(c2ccc(Cl)cc2)C(Cl)(Cl)Cl)cc1`, the Potency is reported as inconclusive [inhibitor, single point]. For `CC(=O)Nc1ccc(NC(=O)CCc2nc3sc4c(c3c(=O)[nH]2)CCCC4)cc1`, the Potency was inconclusive [inhibitor, single point]. With `CC(C)OCCCNC(=O)C1CCC(CNS(=O)(=O)c2ccc(Cl)cc2)CC1` (centres undefined) the Potency was inconclusive [inhibitor, partial curve, poor fit]. For `CC1CCC(C(C)C)C(OC(=O)C[n+]2cc(-c3ccc(Cl)cc3)n3c2CCC3)C1` (centres undefined), the Potency was inconclusive [inhibitor, full curve]. With `CC(=O)N1CCN(c2ccc(NCc3cccs3)cc2)CC1` the Potency was “inactive”. In the case of `Cc1ccc(NC(=O)C2CCCN(S(=O)(=O)c3c(C)noc3C)C2)cc1F` (centres undefined), the Potency is reported as inconclusive [inhibitor, partial curve]. For `CCN(CC)CCOC(=O)C(c1ccccc1)C1CCCCC1` (centres undefined), the Potency was inconclusive [inhibitor, single point]. With `COC(=O)C1=CN(c2ccc(OC)cc2)C=C(C(=O)OC)C1c1cc(OC)c(OC)cc1OC` the Potency was “inactive”. In the case of `COc1ccc(NC(=O)c2cc(C3CC3)nc3c2cnn3C(C)C)cc1OC`, the Potency is reported as inconclusive [inhibitor, single point]. In the case of `Cc1ccc(C(=O)OCC(=O)NCc2ccco2)cc1C`, the Potency is reported as “inactive”. For `O=c1c2ccccc2nc(-c2ccccc2)n1-c1ccccc1O`, the Potency was inconclusive [inhibitor, partial curve, poor fit]. With `Cc1ccc(NC(=O)CCNS(=O)(=O)c2ccc3[nH]c(=O)oc3c2)cc1C` the Potency was “inactive”. For `CCCCn1c(-c2cccc(Br)c2)nc2cc3[nH]c(=O)c(C(C)C)nc3cc21`, the Potency was inconclusive [inhibitor, single point]. For `O=C(N/N=C/c1cc([N+](=O)[O-])ccc1O)c1ccncc1`, the Potency was active: 8.28 µM. For `COc1ccccc1/C=C/C=N/N1CCN(c2ccccn2)CC1`, the Potency was inconclusive [inhibitor, partial curve, poor fit]. In the case of `Cc1ccc(-c2[nH]ncc2C(=O)c2ccc(Br)cc2)c(O)c1`, the Potency is reported as inconclusive [inhibitor, partial curve, poor fit]. In the case of `COc1ccccc1CCc1nnc(CCC(=O)NCCOc2cccnc2)o1`, the Potency is reported as “inactive”. With `CCN(Cc1ccc(OC)c(F)c1)C(=O)CCl` the Potency was inconclusive [inhibitor, full curve, poor fit]. With `COc1ccc2cc(CN(CC3CCCO3)C(=S)NCc3ccco3)c(=O)[nH]c2c1` (centres undefined) the Potency was active: 9.28 µM. With `Cc1ccc(C2=NCC(=O)N(CC(=O)N3CCCCC3)c3sc(C)c(C)c32)cc1` the Potency was inconclusive [inhibitor, partial curve, poor fit]. With `CCc1nnc2c(NCCc3ccc(OC)c(OC)c3)nc3ccccc3n12` the Potency was inconclusive [inhibitor, partial curve, poor fit]. In the case of `C#Cc1ccc([C@H]2C=C(C(=O)N3CCN(Cc4ccccc4)CC3)O[C@@H](OCC)[C@@H]2CCCO)cc1`, the Potency is reported as inconclusive [inhibitor, partial curve, poor fit]. For `CC(=O)Nc1cccc(C(=O)Nc2cccc(S(=O)(=O)NCc3ccco3)c2)c1`, the Potency was inconclusive [inhibitor, single point]. With `Cc1cc(C(=O)CSc2nnc(C3CC3)n2C2CC2)c(C)n1C(C)C` the Potency was inconclusive [inhibitor, single point]. For `CC(C)c1ccc2c(c1)C1(NN=C(c3ccccc3)S1)C(=O)N2` (centres undefined), the Potency was active: 3.29 µM. With `CCCCCN(C(=O)CCC(=O)OCc1cccc(Br)c1)c1c(N)n(CCCC)c(=O)[nH]c1=O` the Potency was inconclusive [inhibitor, single point]. For `CC(=O)c1c(NC(=O)c2ccccc2)[nH]c(-c2ccccc2)nc1=S`, the Potency was inconclusive [inhibitor, partial curve]. For `COc1ccc(COc2cc(-c3cccc(OC)c3)nc3ccc(NC(=O)c4ccccc4)cc23)cc1`, the Potency was active: 11.7 µM. With `COc1ccc(C(=O)NC2CCN(C(=S)Nc3cc(C)cc(C)c3)CC2)cc1` the Potency was “inactive”. In the case of `COc1ccc(C2/C(=C(\O)c3ccc4c(c3)OCCO4)C(=O)C(=O)N2Cc2cccnc2)cc1OC` (centres undefined), the Potency is reported as inconclusive [inhibitor, single point]. With `COC(=O)C(CC(=O)c1ccc(Cl)cc1)c1ccc(C)cc1` (centres undefined) the Potency was inconclusive [inhibitor, single point]. With `CC(C)OCCCNC(=O)CN1C(=O)CSc2ccc(S(=O)(=O)N3CCCCC3)cc21` the Potency was inconclusive [inhibitor, partial curve, poor fit]. With `COc1ccc([N+](=O)[O-])cc1NCC(=O)Nc1cc(S(=O)(=O)N2CCCCC2)ccc1C` the Potency was active: 11.7 µM. For `C=C1CCN([C@H](C(=O)Nc2ccc(OC)cc2)C(C)C)S(=O)(=O)c2ccccc21`, the Potency was inconclusive [inhibitor, single point].
Potency is read from the fitted curve at half-maximal effect; tags tell the direction and shape of the fitted curve.
